# Test results taken from PubChem BioAssay AID588855 (National Center for Advancing Translational Sciences (NCATS), 2011).
# The campaign covered roughly 410,000 compounds. About 5,000 (1.2%) were called active. The inconclusive results got no clear call from the source; some entries with a clear call stand among them for comparison. Calls come from the whole dose curve; as a rule, active = well fitted inhibition curve with a large enough effect; inconclusive = small, poorly fitted or top-dose-only effect; inactive = no such curve, though single readings can be large or run the other way. A potency beside an inconclusive call is a rough fit, not a confirmed value.
# Assay: qHTS for Inhibitors of TGF-b; note: nearly all actives have a fitted effect of over 65% in size
# Conditions: HepG2 CAGA-GFP TGF-b/SMAD3 reporter, GFP fluorescence, 18 h, TGF-beta stimulated, 500 pg/mL final; series mostly up to 46.1 µM
# Procedure, shortened: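 HEPG2 CAGA-GFP reporter cells (1000/well, DMEM with 1% FBS) received compounds, then recombinant TGF-beta at 500 pg/mL final for 18 hours at 37 degrees C. Per-cell GFP summed per well was normalised to unstimulated and stimulated DMSO controls before curve fitting.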
# Potency is the fitted concentration of half-maximal effect; tags give direction and shape of the fitted curve.
row,Structure (SMILES),Potency
1,CCN1C[C@@H]2[C@@H]3C(=O)N(Cc4ccccc4)C(=O)[C@@H]3[C@](C)(C1=O)N2C(=O)c1ccc(F)cc1,"inconclusive: 3.55 µM [inhibitor, single point]"
2,Cc1ccccc1-c1cc2nc(NCc3ccccc3)n(C)c(=O)c2s1,"inconclusive: 20 µM [inhibitor, single point]"
3,COc1ccc(N=C2C(=O)N3c4c(cccc42)C(C)=CC3(C)C)cc1,inactive
4,CCNc1nc(Oc2ccc(C#N)cc2)cc(C(F)(F)F)n1,inactive
5,Cc1ccc(NC(=O)C2CCN(S(=O)(=O)c3ccc4c(c3)CC(C)N4C(=O)C3CCC3)CC2)nc1 (centres undefined),"inconclusive: 20 µM [inhibitor, single point]"
6,COc1cc(C2C(=O)N(C3CCCCC3)CC(=O)N2CCc2ccccc2)ccc1OC(C)C (centres undefined),inactive
7,COc1ccc(-c2cc(C(F)(F)F)nc(SCCC(=O)Nc3ccc(NC(C)=O)cc3)n2)cc1,inactive
8,Cc1cc(C2=CC(=O)C[C@H](c3ccc(F)cc3)C2)ccc1F,"inconclusive: 35.5 µM [inhibitor, single point]"
9,C(=N\Nc1nc2ccccc2[nH]1)/c1ccc2c(c1)OCCO2,"inconclusive: 7.08 µM [inhibitor, partial curve]"
10,O=C1CC(c2c(Cl)cccc2Cl)c2c(ccc3ccccc23)N1 (centres undefined),"inconclusive: 17.8 µM [inhibitor, single point]"
11,O=C(Nc1nc(-c2cccs2)c(-c2cccs2)s1)C1CCCC1,"inconclusive: 35.5 µM [inhibitor, single point]"
12,NC(=O)c1cc(S(=O)(=O)N2CCCC2)ccc1OCCOc1ccccc1F,inactive
13,CC(C(=O)Nc1cccc([N+](=O)[O-])c1)N1CCN(C/C=C/c2ccccc2)CC1 (centres undefined),inactive
14,Cc1nn(-c2ccccc2)c(OC(=O)c2ccccc2Br)c1S(=O)(=O)c1ccccc1,inactive
15,Cc1cc(C)c2c(NC(=O)CCl)nn(C)c2n1,inactive
16,O=C(CS(=O)(=O)c1cccc2nsnc12)N1CCN(c2ccccc2F)CC1,active: 15.8 µM
17,O=C(Nc1ccc(Cl)cc1)C1CCC(CNS(=O)(=O)c2ccc(Br)s2)CC1 (centres undefined),"inconclusive: 15.8 µM [inhibitor, single point]"
18,COc1ccc(CC2(C)OC(c3ccccc3)=NN2C(C)=O)cc1 (centres undefined),inactive
19,O=[N+]([O-])c1cc(-c2nc(-c3ccncc3)no2)cc([N+](=O)[O-])c1,"inconclusive: 3.16 µM [inhibitor, full curve, poor fit]"
20,O=C(Cc1ccccc1F)Nc1cccc(S(=O)(=O)N2CCOCC2)c1,inactive
21,CCN(c1ccccc1)S(=O)(=O)c1nnc(NC(=O)c2ccccc2OC)s1,"inconclusive: 35.5 µM [inhibitor, single point]"
22,O=C(Cc1cccc(NC(=O)C2CCCN(C(=O)C3CCC3)C2)c1)Nc1cccc(C(=O)N2CCOCC2)c1 (centres undefined),inactive

row,Structure (SMILES),Potency
1,O=c1c2sccc2nc(SCc2cc(=O)n3cc(Cl)ccc3n2)n1-c1ccc(F)cc1,"inconclusive: 12.6 µM [inhibitor, partial curve, poor fit]"
2,CCc1cccc(C)c1NC(=O)CN1CCN(S(=O)(=O)c2ccc(C(C)(C)C)cc2)CC1,"inconclusive: 35.5 µM [inhibitor, single point]"
3,CCN(CC)S(=O)(=O)c1ccc(C)c(NC(=S)N2CCN(Cc3ccc4c(c3)OCO4)CC2)c1,inactive
4,CCc1ccccc1NC(=O)CCCSc1nc(-c2ccco2)cc(C(F)(F)F)n1,inactive
5,O=C(NCC1CCCO1)C(c1cccs1)N(Cc1ccccc1)C(=O)c1ccc(-c2ccccc2)[nH]1 (centres undefined),"inconclusive: 25.1 µM [inhibitor, partial curve, poor fit]"
6,CCCN(C(=O)c1cn(C)c(=O)c2cc(OC)c(OC)cc12)c1ccc(CC)cc1,inactive
7,COc1ccc(CC(=O)Nc2ccc(S(=O)(=O)N3CCCC3)cc2)c(OC)c1,inactive
8,O=C(Nc1ccc(O)c(-c2nc3ccccc3o2)c1)C1(c2ccc(Cl)cc2)CCCC1,"inconclusive: 2.82 µM [inhibitor, full curve, poor fit]"
9,CCNc1nc(NCC)nc(N/N=C/c2ccc([N+](=O)[O-])o2)n1,"inconclusive: 35.5 µM [inhibitor, single point]"
10,O=C(O)CSc1cc(C(=O)c2cc(F)ccc2O)cn2c(=O)c3c(-c4ccccc4)csc3nc12,"inconclusive: 35.5 µM [inhibitor, single point]"
11,COc1ccc(-n2c(CN3CCC(C)CC3)nc3ccc([N+](=O)[O-])cc3c2=O)c(OC)c1,"inconclusive: 35.5 µM [inhibitor, single point]"
12,CCN(CC)c1ccc(C(=O)N/N=C/c2ccccc2OC(F)F)cc1,"inconclusive: 25.1 µM [inhibitor, single point]"
13,O=C1N(c2ccccc2C(F)(F)F)O[C@]1(c1ccccc1)C1CCCC1,"inconclusive: 14.1 µM [inhibitor, single point]"
14,Cc1ccccc1NS(=O)(=O)c1ccc2[nH]cc(C(=O)NCCc3ccccc3)c(=O)c2c1,active: 20 µM
15,COc1ccc(/C=C2\SC(=O)N(CCNC(=O)CCS(=O)(=O)c3ccc(C)cc3)C2=O)cc1,"inconclusive: 6.31 µM [inhibitor, full curve, poor fit]"
16,COc1ccc(CNC(=O)CC2C[C@H](C(=O)N3CCOCC3)[C@@]3(CCC4CCCC4)c4[nH]c5ccccc5c4CCN3C2=O)cc1OC (some centres undefined),"inconclusive: 11.2 µM [inhibitor, partial curve, poor fit]"
17,CCCCS/C(N)=N/N=C/c1cc(C)ccc1O,"inconclusive: 35.5 µM [inhibitor, partial curve, poor fit]"
18,Cc1ccc(O)c(C=Nc2ccc3[nH]ncc3c2)c1,"inconclusive: 3.98 µM [inhibitor, partial curve, poor fit]"
19,CN(C)CCCNC(=O)/C(=C\c1ccc(-c2ccc(Br)cc2)o1)NC(=O)c1ccccc1,"inconclusive: 35.5 µM [inhibitor, single point]"
20,Cc1cccc(S(=O)(=O)N(C)C[C@H]2OCc3cnnn3CCCC(=O)N([C@H](C)CO)C[C@@H]2C)c1,"inconclusive: 12.6 µM [inhibitor, single point]"
21,CC(=O)c1sc2nc(-c3ccccc3)cc(C)c2c1N,"inconclusive: 3.98 µM [inhibitor, partial curve, poor fit]"
22,COC(=O)c1cc(NC(=O)c2cc(C(C)(C)C)nn2Cc2ccc(F)cc2)ccc1N1CCOCC1,"inconclusive: 3.98 µM [inhibitor, full curve]"

row,Structure (SMILES),Potency
1,CNC(=S)N/N=C/c1c2ccccc2c(Cl)c2ccccc12,inactive
2,COc1ccc(C(CC(=O)Nc2cc(Cl)c(OC)cc2OC)N2Cc3ccccc3C2=O)cc1 (centres undefined),inactive
3,COc1cc(C2c3[nH]c4ccccc4c3CC3COC(=O)N32)cc(OC)c1O (centres undefined),inactive
4,CC(C)CN(CC(C)C)C(=O)c1cc2c(=O)n3ccccc3nc2s1,"inconclusive: 0.112 µM [inhibitor, full curve, poor fit]"
5,Cn1c(COc2ccccc2Br)nc2ccccc21,"inconclusive: 35.5 µM [inhibitor, single point]"
6,Cc1ccc(-c2cnc3c(c2)C(=O)N([C@H](C)CO)C[C@@H](C)[C@@H](CN(C)C(=O)Cc2ccccc2)O3)cc1,inactive
7,CCOC(=O)c1sc2nccc(N(C)C)c2c1N=CNOCc1c(F)cccc1Cl,"inconclusive: 1.12 µM [inhibitor, partial curve, poor fit]"
8,NC(=O)c1ccccc1NC(=O)CC12CC3CC(CC(C3)C1)C2,"inconclusive: 17.8 µM [inhibitor, single point]"
9,COc1ccc(-c2noc(CSc3nnc(C)n3-c3ccc(F)cc3)n2)cc1,"inconclusive: 0.158 µM [inhibitor, full curve, poor fit]"
10,O=C(Nc1ccccc1)Nc1ccc(Cl)c(S(=O)(=O)N2CCOCC2)c1,"inconclusive: 17.8 µM [inhibitor, single point]"
11,Cc1cccc2sc(NC(=O)CCNS(=O)(=O)c3cccc4nonc34)nc12,"inconclusive: 25.1 µM [inhibitor, single point]"
12,Cc1sc2ncnc(N3CCC(C(=O)NNC(=O)COc4ccccc4Cl)CC3)c2c1C,"inconclusive: 35.5 µM [inhibitor, single point]"
13,O=C(C[C@H]1C(=O)N(Cc2ccccc2)C[C@@H]1Cc1ccccc1)Nc1ccccc1,"inconclusive: 10 µM [inhibitor, partial curve]"
14,NC(=S)NNc1ccnc2cc(Cl)ccc12,inactive
15,CC(C)C(Sc1nc(-c2ccccc2)cc(-c2ccccc2)c1C#N)C(=O)O (centres undefined),"inconclusive: 22.4 µM [inhibitor, single point]"
16,CC(=O)c1cccc(NS(=O)(=O)c2ccc3[nH]c4c(c3c2)CCCCC4)c1,"inconclusive: 15.8 µM [inhibitor, partial curve, poor fit]"
17,CNC[C@@H](Cc1ccccc1)NC[C@@H](CC1CCCCC1)NCCCc1ccccc1,"inconclusive: 35.5 µM [inhibitor, single point]"
18,O=C1NC(c2ccccc2)=C(c2nc3ccccc3s2)C(c2ccccc2)N1 (centres undefined),"inconclusive: 22.4 µM [inhibitor, single point]"
19,O=C(NC1CCCCC1)N1CCCCCC1,"inconclusive: 11.2 µM [inhibitor, partial curve, poor fit]"
20,COc1ccc(-c2cc(=O)oc3cc(OCC(C)=O)ccc23)cc1,"inconclusive: 35.5 µM [inhibitor, single point]"
